The DeepSol protein solubility set

Assay: soluble on expression in E. coli; label from the status in PepcDB or PDB records

Sequence	soluble on expression in E. coli
GPAIAENLYFQSDYFTLFGLPARYQLDTQALSLRFQDLQRQYHPDKFASGSQAEQLAAVQQSATINQAWQTLRHPLMRAEYLLSLHGFDLASEQHTVRDTAFLMEQLELREELDEIEQAKDEARLESFIKRVKKMFDTRHQLMVEQLDNETWDAAADTVRKLRFLDKLRSSAEQLEEKLLDFGAAYSEKVIDHYENPRNVGSFDNNDENVGSGMVGAPACGDVMKLQIKVNDEGIIEDARFKTYGCGSAIASSSLVTEWVKGKSLDEAQAIKNTDIAEELELPPVKIHCSILAEDAIKAAIADYKSKREAK	soluble
SNATAKNLHPLLGEKLNLARIENQHHFQSYLTAESPAYLSQHQVFNKVLFPATGYLEIAAAVGKNLLTTGEQVVVSDVTIVRGLVIPETDIKTVQTVISTLENNSYKLEIFSTSEGDNQQANQWTLHAEGKIFLDSTTNTKAKIDLEQYQRECSQVIDIQQHYQQFKSRGIDYGNSFQGIKQLWKGQGKALGKIALPEEIAGQATDYQLHPALLDAALQILGHAIGNTETDDKAYLPVGIDKLKQYRQTITQVWAIVEIPENTLKGSIKLVDNQGSLLAEIEGLRVTATTADALLK	soluble
